# Assay results taken from the supplement of paper PMC4723716.
# Over roughly 3,600 compounds, “viability index relative to DMSO control” has its median near 0.81; the lowest 2% begin near 0.13. This is one part of the list.
# System: Plasmodium falciparum NF54 stage V gametocytes
# Assay: viability index relative to DMSO control (fraction); higher = less gametocyte killing
# Conditions: 1.25 µM, incubation time: 72 h
# 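Also: 384-well serum-free SaLSSA: MitoTracker Red CMXRos staining with saponin lysis, high-content imaging, treated-well particle count divided by plate-mean count of DMSO wells.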
row,Compound,viability index
1,O=[N+]([O-])c1ccc2nc(Nc3ccccc3)c(Nc3ccccc3)nc2c1,0.481
2,O=C(Nc1ccon1)c1cc(-c2cccnc2)nc2ccc(Cl)cc12,0.82
3,COc1ccc(S(=O)(=O)NCC2CCC(C(=O)NCC(OC)OC)CC2)cc1 (centres undefined),0.983
4,Nc1c(C(=O)Nc2ccc(F)cc2)sc2nc3c(c(-c4cccs4)c12)CCCCC3,1.13
5,CCCCN(C)CCCNC(=O)c1ccc(Cl)c(NC(=O)Nc2ccc(Cl)c(Cl)c2)c1,0.531
6,CCC(C)Nc1nc(NC(C)CC)nc(N2CCCCCC2)n1 (centres undefined),0.864
7,COc1cc(Br)c(C2CC(=O)Nc3ccc4ccccc4c32)cc1OC (centres undefined),0.857
8,COC(=O)C1CCCCN1S(=O)(=O)c1ccc(C)cc1 (centres undefined),0.952
9,C=CCN1C(=O)C(=C2Sc3ccc(OC)cc3N2C)SC1=Nc1ccccc1-c1ccccc1,0.448
10,CCCCN1C(=O)N(c2ccccc2C)C(C)(O)CC1(C)C (centres undefined),0.865
11,CCOC(=O)c1ccc(NC(=O)CSc2nc(NCc3ccccc3)c3ccccc3n2)cc1,0.929
12,Cc1cc2c(cc1C)NC(c1ccccc1F)C1=C(CC(C)(C)CC1=O)N2 (centres undefined),0.695
13,CC(=O)O[C@H]1C(=O)[C@@]2(C)C([C@H](OC(=O)c3ccccc3)[C@]3(O)C[C@H](OC(=O)[C@@H](O)[C@@H](NC(=O)c4ccccc4)c4ccccc4)C(C)=C1C3(C)C)[C@]1(OC(C)=O)CO[C@@H]1C[C@@H]2O (some centres undefined),0.375
14,COC(=O)CC(NS(=O)(=O)c1ccc(OC)cc1)c1ccc2c(c1)OCO2 (centres undefined),1.04
15,COC(=O)c1c(NC(=O)c2cc3ccccc3oc2=O)sc2c1CCC(C)C2 (centres undefined),1.13
16,C[n+]1c2ccccc2nc2ccc(NC3CCCCC3N)cc21 (centres undefined),0.541
17,COC(CNC(=O)c1c[nH]c2ccc(S(=O)(=O)N3CCN(C)CC3)cc2c1=O)OC,0.979
18,CCCCCCCCNC(=O)C1CC1c1ccccc1 (centres undefined),0.785
19,O=C(C(Cc1ccc(O)cc1)c1ccccc1)N1CCC(n2c(Cc3ccc(F)cc3)nc3cccnc32)CC1 (centres undefined),1
20,CCOC(=O)c1sc(NC(=O)CSc2nnc(CNC(=O)COc3ccc(Cl)cc3)n2C)c(C(=O)OCC)c1C,0.938
21,O=C(c1ccc2ccccc2c1)N1CCc2ccccc21,0.926
22,CCOC(=O)c1oc2cc(O)c(CC)cc2c(=O)c1-c1ccc2c(c1)OCO2,1.09
23,CN1CCN(CCCNc2ccnc3cc4ccccc4cc23)CC1,0.533

row,Compound,viability index
1,CC(=O)c1c(C)n(CC(=O)Nc2cccc(C)c2)c2ccccc12,1.01
2,CN(C)c1ccc(C=CC=Cc2cc[n+](C)cc2)cc1,0.971
3,N#CC(=Cc1ccc(Sc2ccccc2)o1)c1nc2ccccc2[nH]1,0.776
4,O=C(O)c1ccc(S(=O)(=O)c2ccc3c(c2)C(=O)N(c2ccc(Sc4ccc([N+](=O)[O-])cc4)cc2)C3=O)cc1,0.887
5,O=C(CCl)Nc1ccc(N2CCCCC2)cc1,0.692
6,O=C(Nc1cccc(-c2nc3ccccc3[nH]2)c1)c1cc(=O)c2ccccc2o1,0.397
7,CC(=O)OCN1C(=O)N(COC(C)=O)C2C1N(COC(C)=O)C(=O)N2COC(C)=O (centres undefined),1.03
8,O=C(NCc1ccccc1)C(c1ccc(F)cc1)N(Cc1ccco1)C(=O)c1cnccn1 (centres undefined),0.72
9,CC1=CC(=Cc2sc3ccccc3[n+]2C)C=C(C)O1,0.914
10,O=C1NC(=O)C(Cc2ccc(S(=O)(=O)N3CCN(c4ccccc4)CC3)cc2)S1 (centres undefined),1.01
11,O=C1Nc2ccccc2C12Nc1ccccc1-c1nc3ccccc3n12 (centres undefined),0.861
12,CCOC(=O)C1=C(C)NC2=C(C(=O)CC(c3ccc(OC)c(OC)c3)C2)C1c1ccc(Cl)cc1Cl (centres undefined),0.328
13,Fc1ccc(-c2c[n+](-c3ccccc3)c3n2CCS3)cc1,0.967
14,CN(Cc1ccccc1)CC(O)COc1ccc(CNCCCN2CCCC2)cc1 (centres undefined),0.827
15,COc1ccc(-n2nc3c(c2NC(=O)C=Cc2cc(OC)c(OC)c(OC)c2)CSC3)cc1,1.11
16,NC1=NC(c2ccccc2)N(c2ccccc2)C(N)=N1 (centres undefined),1.12
17,COC(=O)C1=C(C)NC2=C(C(=O)CC(c3ccc(Cl)cc3)C2)C1c1ccc(F)cc1 (centres undefined),0.992
18,COc1cc2c(-c3cc(Br)ccc3O)nc3c(c(Cc4ccccc4)nn3-c3ccccc3)c2cc1OC,0.595
19,CCOC(=O)c1ccc(NCc2c(C)[nH]c(C(=O)OCC)c2C)cc1,0.767
20,Cc1ccccc1OCc1nnc(SCC(=O)Nc2ccc([N+](=O)[O-])cc2)n1C,1.34
21,C#CC(C)(C)NC(=O)c1ccc(-c2ccc(CC)cc2)cc1,0.548
22,Cc1ccc(N2C(=O)CC(NCCCN3CCOCC3)C2=O)cc1 (centres undefined),1.07
23,CCNc1nc(NC(C)C)nc(NC(N)NOC)n1 (centres undefined),0.817

row,Compound,viability index
1,CCOc1ccccc1NC(=O)C1C(c2ccccc2)=C1c1ccccc1,1.28
2,Cc1c(NC(=O)C2c3ccccc3C(=O)N3CCc4ccccc4C23)cccc1[N+](=O)[O-] (centres undefined),0.892
3,COc1cc2ccccc2cc1C(=O)NCCOC12CC3CC(CC(C3)C1)C2,0.755
4,C=CCSc1ncc(-c2ccc(Cl)cc2)n1C,0.793
5,CCOc1ccc(C(=O)Cn2ccc(=NCc3ccccc3)cc2)cc1[N+](=O)[O-],0.748
6,CN1CCN(c2nc(NN=Cc3cc(I)ccc3O)nc(Nc3ccc([N+](=O)[O-])cc3)n2)CC1,0.668
7,CCOC(=O)C(=O)N1c2ccc(C)cc2-c2c(ssc2=S)C1(C)C,0.808
8,O=C1CC(C(=O)N2CCC(c3nc(-c4cccnc4)ncc3-c3ccccc3)CC2)c2ccccc21 (centres undefined),0.99
9,c1ccc(CSc2nnc3c4ccccc4nc-3[nH]2)cc1,0.859
10,CC[n+]1c(C=CN(C)c2ccccc2)oc(-c2ccccc2)c1-c1ccccc1,0.226
11,COc1ccc(C2C(C(C)=O)=C(O)C(=O)N2CCCn2ccnc2)c(OC)c1 (centres undefined),0.728
12,COc1ccccc1N1CCN(Cc2cc(C(C)C)c(C)cc2O)CC1,0.528
13,Cc1ccc(S(=O)(=O)Nc2nc3n(n2)C(c2ccccc2)C=C(c2ccccc2)N3)cc1 (centres undefined),0.799
14,Clc1ccc(C[n+]2cc(-c3ccccc3)n3c2CCC3)cc1Cl,0.834
15,CN1CCc2c(sc3nc(SCc4ccc(Cl)cc4)n(-c4cccc(Cl)c4)c(=O)c23)C1,1.15
16,CCOc1ccc(Nc2cc(C)nc3c(C)cc(C)cc23)cc1,0.853
17,CCCCOc1ccc(N(C(C)=O)C2=C(N3CCOCC3)C(=O)c3ccccc3C2=O)cc1,0.181
18,CCCCCCOc1ccc(C(C)=NNC2=NCCN2)cc1[N+](=O)[O-],0.525
19,Cc1ccc(-n2c(SCc3ccc(F)cc3)nnc2C(Cc2ccccc2)NC(=O)NC(C)(C)C)cc1 (centres undefined),0.649
20,O=C(NN=CC1CC=CCC1)c1ccc([N+](=O)[O-])cc1Cl (centres undefined),0.963
21,COCCn1c(SCC(=O)c2ccc(C)cc2C)nnc1-c1ccco1,1.12
22,CCN(CC)c1ccc(C2N(Cc3ccccc3)CCN2Cc2ccccc2)c(O)c1,0.641
23,CCOC(=O)c1sc(NC(=O)CSc2nnc(CNC(=O)c3ccco3)n2-c2ccc(F)cc2)c(C(=O)OCC)c1C,0.668

row,Compound,viability index
1,O=C(N1CCN(c2ccc(C(F)(F)F)cc2[N+](=O)[O-])CC1)C(Cl)(Cl)Cl,0.769
2,CCN1C(=Cc2sc3ccc(OC)cc3[n+]2CC)C=Cc2ccccc21,0.456
3,CCCSc1nc(N)c(NC(=O)c2ccco2)c(=O)[nH]1,0.86
4,CCCNc1nc(OC(C(F)(F)F)C(F)(F)F)nc(OC(C(F)(F)F)C(F)(F)F)n1,0.781
5,O=C(NCC1CCCO1)c1ccc([N+](=O)[O-])cc1Cl (centres undefined),1.22
6,CC(NC(=O)Cc1ccc(F)cc1)C(c1cccs1)N1CCOCC1 (centres undefined),0.935
7,CCOC(=O)c1c(C)n(-c2ccccc2)c2ccc(OC(=O)C3CC3)cc12,0.97
8,Brc1ccc(C=Cc2cc[n+](Cc3ccccc3)cc2)cc1,0.398
9,Cc1cccnc1NC(c1ccc([N+](=O)[O-])cc1)c1ccc2cccnc2c1O (centres undefined),0.88
10,Clc1ccc(NCn2nnc3ccccc32)nc1,0.741
11,CSc1c(C(=O)Nc2ccc(Br)cc2)ccc2c1C(=O)c1ccccc1C2=O,1.12
12,O=C(NC1CC1)C1CCN(c2cccc3c2C(=O)N(C2CCCCCCC2)C3=O)CC1,0.815
13,O=C(NNC(=O)c1csnn1)c1ccc(Cl)cc1,0.673
14,CC(=O)N(C1=C(N2CCCCC2)C(=O)c2ccccc2C1=O)c1ccc(F)cc1,0.721
15,CCOC(=O)C1=C(C)NC2=C(C(=O)C(C(=O)OCC)C(c3ccc(OC)cc3)C2)C1c1ccc(OC)c(OC)c1 (centres undefined),0.683
16,Cc1ccc2c(c1)N(C)C(=Cc1cccc[n+]1C)S2,1.26
17,CCOC(=O)c1nnn(-c2nonc2N)c1-c1ccc(Cl)cc1,0.764
18,Cc1ccc2[nH]c3c(NCCN(C)C)ncnc3c2c1,0.83
19,O=C(CCn1c(=S)oc2ccccc21)N1CCN(c2ccccc2)CC1,1.45
20,C=Cc1cc2ccccc2c2cc3c(cc12)C[N+](C)(C)C3,1.11
